Results: the supplement of paper PMC8007513
Where a name gives a salt, the structure may show the parent alone. ± gives the standard error. The whole screen tested about 1,300 compounds, of which about 75 (6%) showed an effect of 50% or more. This is one part of the list.

Tested on: Trichoderma virens ATCC 9645
Assay: growth yield (OD600) relative to untreated control; higher = less growth inhibition
Settings: compound concentration: 100 uM
How it was run: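 Trichoderma virens ATCC 9645 spores, from potato dextrose agar plates grown for 7 days, were brought to 15,000 spores ml^−1 in potato dextrose broth and dispensed as 100 μl aliquots into 96-well plates. Each aliquot received library compounds at 100 μM final, with or without a biocide at 200 ng ml^−1, before growth at 30 °C and OD600 readings on a BioTek EL800 at 40 h and 72 h. Growth is expressed relative to the control containing neither agent and represents means of duplicate screens.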

Compound | growth yield (40 h) [%] | growth yield (72 h) [%]
CN1[C@@H]2CC[C@H]1C[C@@H](OC(=O)C(CO)c1ccccc1)C2 (stereo partly specified) [Atropine sulfate monohydrate] | 104 ± 1.6 | 103 ± 2.2
CC(C)C[C@H]1C(=O)N2CCC[C@H]2[C@]2(O)O[C@](NC(=O)[C@@H]3C=C4c5cccc6[nH]c(Br)c(c56)C[C@H]4N(C)C3)(C(C)C)C(=O)N12 [Bromocryptine mesylate] | 101 ± 1.1 | 104.8 ± 0.94
C[C@]12CCC(=O)C(O)=C1CC[C@@H]1[C@@H]2CC[C@]2(C)C(=O)CC[C@@H]12 [Formestane] | 101 ± 3.2 | 100 ± 2.8
CNC(C)(C)Cc1ccccc1 [Mephentermine hemisulfate] | 99.9 ± 5.2 | 95 ± 2.1
COc1ccc(C(CN(C)C)C2(O)CCCCC2)cc1 (stereo unspecified) [Venlafaxine] | 95.9 ± 5.7 | 94.8 ± 4.2
CN(C)C(=O)Oc1cccc([N+](C)(C)C)c1 [Neostigmine bromide] | 94.7 | 96.5
CNC(=O)Oc1ccc2c(c1)[C@]1(C)CCN(C)[C@@H]1N2C [Eserine hemisulfate salt] | 102.5 ± 0.16 | 102.8 ± 0.42
CC(C)(N)Cc1ccccc1 [Phentermine hydrochloride] | 105 ± 1.6 | 100.2 ± 0.94
CCNCC(O)c1cccc(O)c1 (stereo unspecified) [Etilefrine hydrochloride] | 105 ± 3 | 103.1 ± 0.94
O=c1[nH]c2ccccc2n1C1CCN(CCCC(c2ccc(F)cc2)c2ccc(F)cc2)CC1 [Pimozide] | 94.99 ± 0.64 | 110 ± 2.7
CN(C)C(=O)Oc1ccc[n+](C)c1 [Pyridostigmine iodide] | 104 ± 4.1 | 104 ± 3.2
C#CCN(C)[C@H](C)Cc1ccccc1 [Selegiline hydrochloride] | 102 ± 1.4 | 104 ± 5
C[C@]12CC[C@@H](O)C[C@H]1CC[C@@H]1[C@@H]2CC[C@]2(C)C(=O)CC[C@@H]12 [3-alpha-Hydroxy-5-beta-androstan-17-one] | 80.8 ± 1.4 | 82.6 ± 1.5
CC1OC(OC2/C=C/C=C/C=C/C=C/CC/C=C/C=C/[C@H](C)[C@@H](O)[C@@H](C)[C@H](C)OC(=O)CC(O)CC(O)CC(O)CCC(O)C(O)C[C@]3(O)CC(O)C(C(=O)O)C(C2)O3)C(O)C(N)C1O (stereo partly specified) [Nystatine] | 97.4 ± 5.6 | 107.3 ± 0.94
NCCCNCCSP(=O)(O)O [Amifostine] | 101 ± 3.6 | 99.2 ± 1.9
O=C(CCCN1CCC(n2c(=O)[nH]c3ccccc32)CC1)c1ccc(F)cc1 [Benperidol] | 102 ± 5.2 | 99.9 ± 7.2
C=CCC1(CC(C)C)C(=O)NC(=O)NC1=O [Butalbital] | 98.2 | 96.5
C[C@@H]1CN([C@H]2CC[C@](C#N)(c3ccc(F)cc3)CC2)CC[C@]1(C(=O)O)c1ccccc1 [Levocabastine hydrochloride] | 105 ± 3.3 | 99.3 ± 1.6
CCC(=O)O[C@H]1CC[C@H]2[C@@H]3CCC4=CC(=O)CC[C@]4(C)[C@H]3CC[C@]12C [Testosterone propionate] | 96.7 ± 10 | 99.1 ± 7.5
COc1ccc(OC)c(C(O)C(C)N)c1 (stereo unspecified) [Methoxamine hydrochloride] | 100.7 ± 1e-14 | 101.6 ± 0.32
CCC1(C)CC(=O)NC(=O)C1 [Bemegride] | 99.9 ± 5.6 | 97.4 ± 2

Compound | growth yield (40 h) [%] | growth yield (72 h) [%]
CCCC(C)(COC(N)=O)COC(=O)NC(C)C (stereo unspecified) [Carisoprodol] | 103 ± 4.1 | 104 ± 2.7
C[N+]1(C)CCCC(OC(=O)C(O)(c2ccccc2)c2ccccc2)C1 (stereo unspecified) [Mepenzolate bromide] | 93.4 ± 0.32 | 87.9 ± 1.3
NC(=O)OCCCc1ccccc1 [Phenprobamate] | 104 ± 6.3 | 101 ± 4.6
OC(c1ccccc1)(c1ccccc1)C1CCNCC1 [Azacyclonol] | 99.1 ± 3.8 | 99.4 ± 1.5
COC[C@@H](NC(C)=O)C(=O)NCc1ccccc1 [Lacosamide] | 102 ± 1.8 | 103 ± 2.7
C[C@]12C/C(=C/O)C(=O)C[C@@H]1CC[C@@H]1[C@@H]2CC[C@@]2(C)[C@H]1CC[C@]2(C)O [Oxymetholone] | 96.9 ± 9.2 | 91.5 ± 4.8
C=C1C[C@@H]2[C@H](CC[C@]3(C)C(=O)CC[C@@H]23)[C@@]2(C)C=CC(=O)C=C12 [Exemestane] | 102 ± 7.5 | 102 ± 5.1
CC(=O)[C@H]1CC[C@H]2[C@@H]3CC[C@H]4C[C@H](O)CC[C@]4(C)[C@H]3C(=O)C[C@]12C [Alfaxalone] | 90.9 ± 3.8 | 92.82 ± 0.73
CN1C(=O)CCS(=O)(=O)C1c1ccc(Cl)cc1 (stereo unspecified) [Chlormezanone] | 99.91 ± 0.48 | 103 ± 2.3
C[C@]12COC(=O)C[C@@H]1CC[C@@H]1[C@@H]2CC[C@@]2(C)[C@H]1CC[C@]2(C)O [Oxandrolone] | 93.2 ± 1.4 | 93.4 ± 2
COc1cc2c(c(OC)c1OC)-c1ccc(OC)c(=O)cc1[C@@H](NC(C)=O)CC2 [Colchicine] | 98.48 ± 0.32 | 103.1 ± 0.94
CC[N+]1(C)CCCC(OC(=O)C(O)(c2ccccc2)c2ccccc2)C1 (stereo unspecified) [Pipenzolate bromide] | 102 ± 1.6 | 92.71 ± 0.21
CCCCCC[C@H]1C(=O)O[C@H](C)[C@H](NC(=O)c2cccc(NC=O)c2O)C(=O)O[C@@H](C)[C@@H]1OC(=O)CC(C)C [Antimycin A] | 27.5 ± 1.1 | 49.6 ± 2.6
c1ccc2c(c1)OCC(C1=NCCN1)O2 (stereo unspecified) [Idazoxan hydrochloride] | 95.6 ± 2.2 | 95.23 ± 0.21
C[C@]12CC[C@H](O)C[C@H]1CC[C@@H]1[C@@H]2CC[C@]2(C)[C@@H](C3=CC(=O)OC3)CC[C@]12O [Digitoxigenin] | 99.3 ± 5.9 | 102 ± 5.8
CC(C)c1cccc(C(C)C)c1O [Propofol] | 99.12 ± 0.95 | 98.2 ± 1.3
Oc1ccc2c3c1O[C@H]1[C@@H](O)CC[C@@]4(O)[C@@H](C2)N(CC2CCC2)CC[C@]314 [Nalbuphine hydrochloride] | 98.3 ± 1.1 | 99.8 ± 1.7
CN1C[C@H](CNC(=O)OCc2ccccc2)C[C@@H]2c3cccc4c3c(cn4C)C[C@H]21 [Metergoline] | 94 ± 2.9 | 109 ± 3.2
O=C(NCNC(=O)NC1C(=O)NC(=O)N1CO)NC1C(=O)NC(=O)N1CO (stereo unspecified) [Imidurea] | 102 ± 3.6 | 99.4 ± 2.1
CC(=O)O[C@H]1CC[C@@]2(C)C(=CC[C@@H]3[C@@H]2CC[C@]2(C)C(=O)CC[C@@H]32)C1 [Dehydroisoandosterone 3-acetate] | 91.7 ± 1.4 | 92.08 ± 0.42
O=[N+]([O-])O[C@H]1CO[C@H]2[C@@H]1OC[C@H]2O[N+](=O)[O-] [Isosorbide dinitrate] | 93.6 ± 4 | 87.7 ± 2.3

Compound | growth yield (40 h) [%] | growth yield (72 h) [%]
C=C1CC[C@@]2(O)[C@H]3Cc4ccc(O)c5c4[C@@]2(CCN3CC2CC2)[C@H]1O5 [Nalmefene hydrochloride] | 103 ± 7 | 98.8 ± 6.1
O=C(CCCN1CCC2(CC1)C(=O)NCN2c1ccccc1)c1ccc(F)cc1 [Spiperone] | 101 ± 2.4 | 105 ± 2.9
CC(N)C(O)c1ccccc1 (stereo unspecified) [Phenylpropanolamine hydrochloride] | 101.2 ± 0.48 | 104 ± 2.4
NCC1(CC(=O)O)CCCCC1 [Gabapentin] | 99.4 ± 1.3 | 99.11 ± 0.32
CCOC(=O)c1cncn1[C@H](C)c1ccccc1 [Etomidate] | 97.4 ± 6.2 | 89 ± 4.3
CC(O)(CS(=O)(=O)c1ccc(F)cc1)C(=O)Nc1ccc(C#N)c(C(F)(F)F)c1 (stereo unspecified) [Bicalutamide] | 98.3 ± 4.3 | 95.1 ± 3
C[C@@H]1C[C@@H]([C@H](O)CC2CC(=O)NC(=O)C2)C(=O)[C@@H](C)C1 [Cycloheximide] | 46.7 ± 7.3 | 75.5 ± 5.5
Cc1cc(C(C#N)c2ccc(Cl)cc2)c(Cl)cc1NC(=O)c1cc(I)cc(I)c1O (stereo unspecified) [Closantel] | 98.5 | 99.6
CC[C@@H](CO)NC(=O)[C@@H]1C=C2c3cccc4[nH]cc(c34)C[C@H]2N(C)C1 [Methylergometrine maleate] | 95.3 ± 3.2 | 98.9 ± 1.6
O=c1[nH]oc2c1CCNC2 [THIP Hydrochloride] | 99.4 ± 1.9 | 99.6 ± 2.5
CN[C@@H]1[C@@H](O)[C@@H](O[C@@H]2[C@@H](O)[C@H](O[C@H]3O[C@H](CN)CC[C@H]3N)[C@@H](N)C[C@H]2N)OC[C@]1(C)O.CN[C@@H]1[C@@H](O)[C@@H](O[C@@H]2[C@@H](O)[C@H](O[C@H]3O[C@H]([C@@H](C)N)CC[C@H]3N)[C@@H](N)C[C@H]2N)OC[C@]1(C)O.CN[C@@H]1[C@@H](O)[C@@H](O[C@@H]2[C@@H](O)[C@H](O[C@H]3O[C@H]([C@@H](C)NC)CC[C@H]3N)[C@@H](N)C[C@H]2N)OC[C@]1(C)O [Gentamicine sulfate] | 101 | 97.3
O=C1CC[C@@]2(O)[C@H]3Cc4ccc(O)c5c4[C@@]2(CCN3CC2CC2)[C@H]1O5 [Naltrexone hydrochloride dihydrate] | 105 ± 6.2 | 105 ± 5.3
CN1CCN(C(=O)O[C@H]2c3nccnc3C(=O)N2c2ccc(Cl)cn2)CC1 [Eszopiclone] | 95.1 ± 4 | 98 ± 3.4
CN1CCC2(C)c3cc(O)ccc3N(C)C12 (single isomer, unassigned; (-)) [(-)-Eseroline fumarate salt] | 95.78 ± 0.16 | 91.66 ± 0.63
CC(NC(C)(C)C)C(=O)c1cccc(Cl)c1 (stereo unspecified) [Bupropion hydrochloride] | 103.2 ± 0.64 | 104 ± 1.1
C#C[C@]1(O)CC[C@H]2[C@@H]3CCC4=CC(=O)CCC4=C3C=C[C@@]21CC [Gestrinone] | 107 ± 9.4 | 96.8 ± 7.2
CN1[C@@H]2C[C@@H](OC(=O)[C@H](CO)c3ccccc3)C[C@H]1[C@@H]1O[C@@H]12 [Scopolamine hydrochloride] | 101 ± 4.6 | 97.3 ± 2.3
NCC(CC(=O)O)c1ccc(Cl)cc1 (racemic) [Baclofen (R,S)] | 105 ± 4.1 | 105 ± 4.7
N[C@@H]1C[C@H]1c1ccccc1 [Tranylcypromine hydrochloride] | 99.4 ± 2.2 | 99.21 ± 0.42
C=CCN1CC[C@]23c4c5ccc(O)c4O[C@H]2C(=O)CC[C@@]3(O)[C@H]1C5 [Naloxone hydrochloride] | 101 ± 1.6 | 103 ± 1.1
CCCC(C)C1(CC)C(=O)NC(=O)NC1=O (stereo unspecified) [Pentobarbital] | 101.3 ± 0.95 | 102 ± 1.7
